Test results reported in the BET-seq Pho4 binding data (Le et al. 2018).
The list shows a part of the results. The energies were worked out here from pooled read counts, against the library average; single values are noisy.

Biological target: T1, Pho4 (S. cerevisiae) (UniProt P07270)
T1 sequence: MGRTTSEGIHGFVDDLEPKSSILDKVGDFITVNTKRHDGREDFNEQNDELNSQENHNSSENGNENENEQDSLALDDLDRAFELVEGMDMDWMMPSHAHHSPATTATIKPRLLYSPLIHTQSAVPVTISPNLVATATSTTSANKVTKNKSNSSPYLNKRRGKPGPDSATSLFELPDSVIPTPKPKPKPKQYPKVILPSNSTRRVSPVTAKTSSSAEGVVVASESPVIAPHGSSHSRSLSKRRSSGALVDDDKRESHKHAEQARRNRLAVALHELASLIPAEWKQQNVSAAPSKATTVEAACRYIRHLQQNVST
Experiment: relative binding free energy (BET-seq); higher = weaker binding
Conditions: reference: library average

Relative binding free energy, 0 kcal/mol:
ATAGTCACGTGCTATT, TAATGCACGTGTGGTG, GGGCGCACGTGGTACT

Relative binding free energy, -0.03 kcal/mol:
TTTAGCACGTGTTGTT, CATTGCACGTGATATG, TTGATCACGTGGTCTG, ATTGGCACGTGACTGA, TGTGCCACGTGTGTTC, TGTCGCACGTGTAATT

Relative binding free energy, -0.23 kcal/mol:
AGTCGCACGTGCGGGG, AAAGGCACGTGGGGCC

Relative binding free energy, 0.09 kcal/mol:
AAAGGCACGTGAGCGG, AGGTACACGTGGAGCG, TAGTACACGTGTGTGA, GTCTACACGTGGTAGT, GCGGTCACGTGGAGTG, GGAGACACGTGTGGAG, TGTATCACGTGCTTCG

Relative binding free energy, 0.28 kcal/mol:
AGTTTCACGTGGCTTG

Relative binding free energy, 0.04 kcal/mol:
GGTATCACGTGCATGT, GTTAGCACGTGTAGGA, GGCTGCACGTGTGCGT, GTGGCCACGTGTAGTG

Relative binding free energy, -0.16 kcal/mol:
GGATGCACGTGGGCTT

Relative binding free energy, 0.02 kcal/mol:
TGTGGCACGTGATGAT, GGGAACACGTGTATTG, AGAGGCACGTGATTTT, TGGTGCACGTGAGGCA, ATTATCACGTGGGCGT, TTAGACACGTGGATAT, GCGAGCACGTGATGGT

Relative binding free energy, 0.41 kcal/mol:
TTGTTCACGTGGACGA

Relative binding free energy, 0.3 kcal/mol:
GATTTCACGTGAGGCT, GGGAGCACGTGAAGGC, AAATTCACGTGATGTA

Relative binding free energy, 0.29 kcal/mol:
GGTGTCACGTGATCTT, TTGGTCACGTGATACG

Relative binding free energy, -0.04 kcal/mol:
TAGGCCACGTGTCGGT, GACGACACGTGGGTGG, TTGTGCACGTGTATCA, TGGGTCACGTGGGGAG, TATACCACGTGTTGGT

Relative binding free energy, 0.1 kcal/mol:
GTTATCACGTGGTCGT, TTCTCCACGTGTTGTG, GTAGGCACGTGTAGAT, TTGTGCACGTGACTAG, TCTTGCACGTGTGTGA, TGTTACACGTGGAATA

Relative binding free energy, 0.01 kcal/mol:
ATTGACACGTGGAAGA, AATGTCACGTGGCTAG, GGGAGCACGTGTGGAC, TTTTACACGTGGGCTA, TTAAGCACGTGTGAAT

Relative binding free energy, -0.34 kcal/mol:
CTGCGCACGTGGGTTG

Relative binding free energy, 0.53 kcal/mol:
AATTACACGTGAGGAA

Relative binding free energy, 0.06 kcal/mol:
CAGGTCACGTGGAGAG, AGGTTCACGTGCATAT, TGTCACACGTGTAATG, TTAGACACGTGGTTAT, AATTACACGTGTTGTG, CGAAGCACGTGGATGG

Relative binding free energy, -0.08 kcal/mol:
TAGGGCACGTGTAGGT, AATAGCACGTGTTTTA, ATGGGCACGTGTCAGT, ATAGACACGTGGTTAT, CGCGCCACGTGTAGGG, TGTGGCACGTGTGGGA

Relative binding free energy, -0.06 kcal/mol:
ATTGGCACGTGTACGT, TGAGGCACGTGGTTGG, ACAGGCACGTGAGGGG, AAGGACACGTGGTGGG, AAGCGCACGTGTTGGA

Relative binding free energy, 0.08 kcal/mol:
TAAATCACGTGTGTGC, TTGTACACGTGTGGCG, AGGTACACGTGGAATT, CATTACACGTGTGTAG, TGTGTCACGTGCTGCT

Relative binding free energy, 0.07 kcal/mol:
TTGTCCACGTGTTGGC, CATGTCACGTGCGGTG, GTTTACACGTGCTCGT, GGTGGCACGTGTGACG

Relative binding free energy, 0.05 kcal/mol:
ATTGGCACGTGAATGA, AATTACACGTGGTCTT, TGGGTCACGTGCAGAG, TGGCGCACGTGTGTTC

Relative binding free energy, 0.13 kcal/mol:
TATTACACGTGCGGAG, GCGCTCACGTGCGGGG

Relative binding free energy, 0.48 kcal/mol:
GAGTTCACGTGAGGCA

Relative binding free energy, 0.25 kcal/mol:
TCTGTCACGTGAGGTT, TTGCTCACGTGATGGG

Relative binding free energy, -0.01 kcal/mol:
GTAAGCACGTGCTGGA, CTTTGCACGTGGTAAG, CGGTGCACGTGTAGTG, GGTAGCACGTGGATTA, TGTGGCACGTGACGTA

Relative binding free energy, 0.37 kcal/mol:
AGTTACACGTGAGTCG, TGGAACACGTGAATAG, GATTTCACGTGTGCGC

Relative binding free energy, 0.15 kcal/mol:
GTGTACACGTGAGCGT, GGGATCACGTGCGGTG, ATGATCACGTGTTCGA, CTGCTCACGTGGGAGT, GTGTGCACGTGTAAGC, TAAAGCACGTGATTAT, TTTATCACGTGGTGTC

Relative binding free energy, 0.26 kcal/mol:
GTGCTCACGTGTTGAG, GTTGACACGTGATTTT, ATGTTCACGTGCCAGG

Relative binding free energy, 0.23 kcal/mol:
AGTTTCACGTGTAAGT, CGGGTCACGTGTAGGG, TGGTTCACGTGCTGTG, AGTTCCACGTGAATGG, TTGGTCACGTGTCAAT

Relative binding free energy, -0.02 kcal/mol:
ATGGACACGTGTGTTC, TTCGGCACGTGTGATT, TCGAGCACGTGCGGGA, GGAGGCACGTGGACGA, GATGGCACGTGTGTAT, TTGGACACGTGGGTTG

Relative binding free energy, 0.34 kcal/mol:
ACATTCACGTGATGTG, GTGTTCACGTGTAGTG, AGGTTCACGTGTGGTC

Relative binding free energy, 0.45 kcal/mol:
CATATCACGTGAGGGT, GATTTCACGTGTGTTC

Relative binding free energy, 0.39 kcal/mol:
TTTTTCACGTGGACGC

Relative binding free energy, -0.2 kcal/mol:
TGCGCCACGTGGAGGT, CACAGCACGTGGGGTT

Relative binding free energy, -0.19 kcal/mol:
CGAAGCACGTGGGCGG, TCATGCACGTGCGTTG, ATTCGCACGTGGGGTC, CTGGGCACGTGGTTCT

Relative binding free energy, -0.09 kcal/mol:
AAAGGCACGTGATAGG, GCTCGCACGTGTTGGG, TTATGCACGTGTACGG, CCGGGCACGTGTTTGT

Relative binding free energy, 0.12 kcal/mol:
TGTGTCACGTGACGGA, AGCCTCACGTGGTTGG, TAGTGCACGTGATGAT, AGTTACACGTGTAGTG

Relative binding free energy, -0.11 kcal/mol:
GTTTGCACGTGGGCTA, GGGGGCACGTGCAGCG, TTGGCCACGTGCCGGT, CAAGTCACGTGGGGTT

Relative binding free energy, -0.17 kcal/mol:
ATTGCCACGTGGTTTA, TTGGGCACGTGCGAGG, GTGAGCACGTGGGCAG

Relative binding free energy, -0.24 kcal/mol:
ATTAGCACGTGGTCTT

Relative binding free energy, -0.07 kcal/mol:
CAGAGCACGTGTAGTG, GTGTGCACGTGCGTTA, ATGGACACGTGGGGCA, TATGACACGTGGATAT, ATAAGCACGTGCGGTA, GTAGCCACGTGTTAGT

Relative binding free energy, 0.32 kcal/mol:
GTGGTCACGTGATGAG

Relative binding free energy, -0.05 kcal/mol:
TATCACACGTGGGGAG, TGTCGCACGTGGTTAG, CAAGGCACGTGTTTGG, CTTTGCACGTGTTTAT

Relative binding free energy, -0.18 kcal/mol:
TCGGGCACGTGTAGGA, TTGGACACGTGCGCGG, TGTGGCACGTGGCGTA, AAAGGCACGTGGTGTT

Relative binding free energy, 0.19 kcal/mol:
TTTGACACGTGGAATC, GCTCTCACGTGGGAGG, TTGCTCACGTGTTTCG, GTGGGCACGTGAAGTA

Relative binding free energy, 0.38 kcal/mol:
GTGATCACGTGATAGT

Relative binding free energy, 0.2 kcal/mol:
GTTATCACGTGTTTTA, GTGTGCACGTGAGTTA, GTGATCACGTGGATTA

Relative binding free energy, 0.33 kcal/mol:
GGGTTCACGTGCGGTT, GAGCTCACGTGGGAGT

Relative binding free energy, 0.35 kcal/mol:
GCTTTCACGTGTAGTT, TGGGTCACGTGTGAAG, ATCTTCACGTGAAGGG, CTGATCACGTGAGTTT

Relative binding free energy, 0.21 kcal/mol:
GGAATCACGTGGTTGG, AGGAGCACGTGAGTAG, GGGATCACGTGGTCTT, GTGATCACGTGTTTTT

Relative binding free energy, 0.24 kcal/mol:
GAGGTCACGTGTTATT, GTGTACACGTGGATTC, CAATTCACGTGCGGGG, TTATTCACGTGGTTGC, GTATTCACGTGTGTAA, GCGTCCACGTGAGGTG, AAATTCACGTGTTGAT

Relative binding free energy, -0.1 kcal/mol:
TGGGTCACGTGCCTGT, TAAGCCACGTGTGTTG

Relative binding free energy, -0.12 kcal/mol:
GTCAGCACGTGGGTGA, ATTGACACGTGGGTGA

Relative binding free energy, -0.14 kcal/mol:
GGGTGCACGTGGGCCT

Relative binding free energy, 0.14 kcal/mol:
GCTATCACGTGCGGTG, GGTCGCACGTGTATGG

Relative binding free energy, -0.29 kcal/mol:
GGACGCACGTGGGGCT

Relative binding free energy, -0.13 kcal/mol:
AAGGGCACGTGGTTGA

Relative binding free energy, 0.17 kcal/mol:
GTGTCCACGTGATTGG, GTTTACACGTGATGCT, TGGTTCACGTGGGCGC, TATTTCACGTGGGGCG

Relative binding free energy, 0.22 kcal/mol:
GGTTACACGTGTACGG, GAGCTCACGTGTATGG

Relative binding free energy, 0.4 kcal/mol:
TGTTTCACGTGTAGCG

Relative binding free energy, 0.11 kcal/mol:
GGCCGCACGTGTGTTG, GTTAACACGTGGGTCG, TCGTACACGTGTCGTG, AGAATCACGTGGGATG

Relative binding free energy, 0.18 kcal/mol:
TGATACACGTGATGAG, CGTATCACGTGATTTG, TTAGTCACGTGCGTAG, TACTTCACGTGTGTGA, GGGTTCACGTGCGCTG, CGTGACACGTGAAGGG

Relative binding free energy, 0.16 kcal/mol:
AACGTCACGTGTAGGT, TGGTGCACGTGATAAG, GTGGGCACGTGAAACG, ATTGACACGTGAGTGA, GTTTACACGTGTAGAA, GTTTTCACGTGTATCG, ATGGTCACGTGTGAGT, TTAAACACGTGATGGT, ATGATCACGTGTGGCA, TTATTCACGTGGTCTT, TGTTGCACGTGGAGAG

Relative binding free energy, 0.03 kcal/mol:
AAAAACACGTGTTTTT

Relative binding free energy, 0.31 kcal/mol:
TTTTTCACGTGAAAAT, ACAGTCACGTGAAGGT, TTTTTCACGTGATTGA

Relative binding free energy, -0.22 kcal/mol:
GGGAGCACGTGTGTAG, GTAGCCACGTGGGGAG
